Out of some 48,000 compounds screened, about 450 (0.94%) were called active. Inconclusive results (about 19%) are left out. The call rests on the fitted dose curve; in most records, active means well fitted inhibition curve with a large enough effect; inconclusive means small, poorly fitted or top-dose-only effect; inactive means no such curve, though single readings can be large or run the other way. Some of the results follow.
Assay: Primary qHTS for Identification of Small Molecule Inhibitors of Huntingtin Promoter Activity; further: nearly all actives have a fitted effect of over 50% in size
Details: HEK293 HTT promoter firefly luciferase reporter (activity 0% = vehicle and -100% = no light), 24 h; series mostly up to 57.5 µM; activity change, negative = inhibition: at the top concentration
Outline: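 Luminescence was read after Dual-Glo reagent and a 10 min room-temperature incubation. Values were normalized to vehicle (0% activity) and zero RLU (-100% activity). Reporter HEK293 cells had been exposed to compounds (up to 57.5 uM final) for 24 h.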

Activity change, negative = inhibition, inactive:
Cc1ccc(C(=O)CSc2nnc(-c3ccccc3)n2-c2ccccc2)cc1 -27.2%
O=C(O)c1cc(O)c2c(c1)C(=O)c1cccc(O)c1C2=O -10.3% [at 116 µM]
CCOc1ccc(NC(=O)CSc2ncc3c(n2)-c2cc(Cl)ccc2N(C)S3(=O)=O)cc1 -18.5%
CC1=C(C(=O)NCc2ccc(C)cc2)C2(CCCCC2)OC1=O -21.5%
Cc1ccc(Nc2c(F)cccc2Cl)c(CC(=O)O)c1 2.76%
Cc1ccc2cccc(NC(=O)C(C)Oc3ccc(C)c(C)c3)c2n1 (configuration not stated) -24.6%
Cc1noc(Cn2c(=O)c3ccccc3n(CC(=O)Nc3ccc(Cl)cc3)c2=O)n1 -7.87%
O=C(Nc1cc(Cl)ccc1Cl)C1(c2cccs2)CCOCC1 -11.5%
COc1ccc(Nc2ncc(C(=O)Nc3cc(Cl)c(OC)cc3OC)c3ccccc23)cc1 -12.6%
CN(C)c1ccc(C(CNS(=O)(=O)c2ccc(F)cc2)N2CCCC2)cc1 (configuration not stated) 0.603%
O=c1c2cc3c(cc2n(Cc2cccc(Cl)c2)c(=O)n1Cc1nc(-c2ccccc2)no1)OCO3 -10.6%
COc1ccc(NC(=O)CCNS(=O)(=O)c2cccc3nonc23)c(OC)c1 -7.47%
COc1ccc(N2CCN(C(=O)c3ccc(Nc4nc5ccccc5n5nnnc45)cc3)CC2)cc1 3.7%
O=C(Nc1ncc(Cc2ccc(Cl)cc2)s1)c1ccc2c(c1)CC(c1ccccc1)OC2=O (configuration not stated) -9.41%
COc1cccc(CNC(=O)CSc2nc3ccccc3nc2Cc2ccc(C)cc2)c1OC -5.63%
CCOC(=O)CNC(=O)c1cc2c(=O)n3cccc(C)c3nc2s1 25.4%
COc1cccc(C2CC(=O)Nc3c2c(=O)nc2c(C)cccn32)c1 (configuration not stated) -11.1%
CCOc1ccccc1NC(=O)CSc1ncc(S(=O)(=O)c2ccc(C(C)(C)C)cc2)c(=O)[nH]1 -12.9%
CCCCNC(=O)CCn1c(=O)c2cccn2c2ccc(F)cc21 -4.32%
CCOC(=O)c1cc(-c2ccc(OC)c(S(=O)(=O)NC3CCCCC3)c2)on1 -7.03%
CCCCN(CC)CCCNC(=O)CN1C(=O)CSc2ccc(S(=O)(=O)N3CCOCC3)cc21 -10.4%
COc1ccc(CCNC(=O)CN2C(=O)COc3ccc(C)cc32)cc1OC -18.1%
CCN(C(=O)Cn1nc(Cc2ccncc2)c2ccccc2c1=O)c1cccc(Cl)c1 -4.51%
COc1ccccc1N(CC(=O)N1CCC(C)CC1)S(=O)(=O)c1ccc(C)cc1 -16.1%
c1ccc2sc(SSc3nc4ccccc4s3)nc2c1 6.91% [at 25.2 µM]
COCCCNC(=O)c1c(-c2ccccc2)c(-c2ccccc2)nn(C)c1=O -2.48%
O=C(Nc1ccc2nc3n(c(=O)c2c1)CCCCC3)C(=O)Nc1ccccc1F 8.73%
COc1cc(NC(=O)c2nn(C)c3c2CS(=O)(=O)c2ccccc2-3)cc(OC)c1 -22.4%
CCc1ccc(Cn2c(CNS(=O)(=O)c3ccc([N+](=O)[O-])cc3)nc3cccnc32)cc1 -9.02%
Cc1cccc(Nc2nn3c(=O)c4cc5c(cc4nc3s2)OCO5)c1 -13.8%
CCn1nc(C)c(CCN(C)C(=O)Nc2ccc(C)c(Cl)c2)c1C 0%
COc1cc(N2C(=O)CSC23C(=O)N(Cc2cccc(F)c2)c2ccccc23)cc(OC)c1OC (configuration not stated) -31.7%
COc1ccc(NC(=O)c2sc3nc4c(cc3c2N)CCCCCC4)c(OC)c1 -7.81% [at 11.5 µM]
CCN(CC)CCNC(=O)CN1C(=O)COc2ccc(S(=O)(=O)N3CCOCC3)cc21 -7.14%
CCOC(=O)Cn1c(=O)n(CC2CCCO2)c2nc(-c3ccc(OCC)cc3)nc(C(N)=O)c21 (configuration not stated) -8.48%
COc1ccc(CCNC(=O)c2ccc3c(c2)CCN3S(=O)(=O)c2ccccc2)cc1OC -14%
CCOc1ccccc1NC(=O)Cn1c(=O)n(Cc2ccccc2)c(=O)c2c1c1cc(C)ccc1n2C -3.41%
COc1ccccc1OCc1nnc(-c2ccccc2)o1 56.2%
CCCCOC(=O)c1ccc(OC(=O)c2sc3ncn(Cc4ccccc4Cl)c(=O)c3c2C)cc1 -19.1% [at 11.5 µM]
CCOc1ccc(CNCCCSc2nnnn2C)cc1OC -15.1%
COc1cccc(CNC(=O)Cc2csc3nc(-c4ccccc4)cn23)c1 -0.785%
Cc1ccccc1Nc1c(-c2ccc(Br)cc2O)nc2sccn12 -14.3%
CCOc1ccc(NC(=O)Cn2cc(C(=O)c3ccc(OC)cc3)c(=O)c3cc4c(cc32)OCO4)cc1 -6.43%
O=C(Nc1ccc(Cl)c(-c2nc3ccccc3o2)c1)c1ccc(-c2cccc([N+](=O)[O-])c2)o1 -2.02%
COc1ccccc1CNC(=O)c1cnc(N(C)C)nc1 -8.49%
COc1ccc(NC(=O)Cn2c(SCc3ccc(F)cc3)nc3cccnc32)c(OC)c1 -28.8%
COc1cccc(N2CCN(C(=O)c3cc4c(=O)n(Cc5cccnc5)ccc4nc3C)CC2)c1 3.07%
CC1CCn2c(nc3cc(C(=O)NCCc4ccccc4)ccc32)C1 (configuration not stated) 2.18%
CCOc1ccc(C(=O)Nc2nc(-c3ccc(Br)cc3)ns2)cc1 -10.4%
COC(=O)c1ccccc1NC(=O)CCC(=O)N1CC(C)Sc2ccccc21 (configuration not stated) -17.6%
Cc1ccc2c(=O)cc(C(=O)Nc3ccc(S(=O)(=O)N4CCCCC4)cc3)oc2c1 -15% [at 11.5 µM]
COc1ccc(NC(=O)C2CCCN(c3cnccn3)C2)c(OC)c1 (configuration not stated) 0.565%
CCC(Cc1ccccc1)NC(=O)CCS(=O)(=O)c1cc2c(cc1Cl)NC(=O)CO2 (configuration not stated) -9.32%
Cc1ccc(NC(=O)CSc2cn(CC(=O)N3CCOCC3)c3ccccc23)cc1Cl -19%
Cn1c(=O)c2nc3ccc(NC(=O)C(F)(F)F)cc3nc2n(C)c1=O 13.8%
Cc1ccc2c(c1)C(c1ccccc1)N(C(=O)c1ccc(S(=O)(=O)N3CCCC3)cc1)CC(=O)N2 (configuration not stated) -25.8%
N=C(N)c1ccc(OCCCCCOc2ccc(C(=N)N)cc2)cc1 -18.3%
Cc1ccc(NC(=O)CN2C(=O)CSc3ccc(S(=O)(=O)N(C)C)cc32)c(C)c1 -30.9%
O=S(=O)(c1ccccc1)c1nnn2c1nc(N1CCN(c3ccccc3)CC1)c1cc(Cl)ccc12 8.48%
COc1ccc2sc(N(Cc3cccnc3)C(=O)C3COc4ccccc4O3)nc2c1 (configuration not stated) -3.15%
NS(=O)(=O)OC[C@@H]1C[C@@H](n2ccc3c(N[C@H]4CCc5ccccc54)ncnc32)C[C@H]1O -1.69%
CCOC(=O)/C(C#N)=C/c1ccc(-c2ccccc2)o1 44.5%
O=C(Cn1cc2c(n1)CCCC2)Nc1cc(C(F)(F)F)ccc1Cl -30.2%
Cc1nc(SCc2ccccc2Cl)c(C#N)c(C)c1C 4.47%
Cc1cc(C)cc(NC(=O)c2sc3nc4n(c(=O)c3c2C)N=C(c2ccc(F)cc2)CS4)c1 -11.3%
CCc1cccc(NC(=O)CSc2n[nH]c(-c3ccccc3Cl)n2)c1 -23.2%
Cc1nnc(N2CCN(c3cccc(Cl)c3)CC2)c2c1nnn2Cc1ccc(F)cc1 -4.97%
Cn1c(NCCN(CCO)CCCc2ccc([N+](=O)[O-])cc2)cc(=O)n(C)c1=O
CCOc1ccc(OCC)c(NC(=O)c2cnn(-c3ccc(F)cc3)c2C2CCN(C(=O)OC(C)(C)C)CC2)c1 -10.5%
CCCNC(=O)Cn1ncc2c3ccccc3n(CCC)c2c1=O -13.1%
COc1ccc(-n2ccnc(NCc3cccs3)c2=O)cc1 -16.2%
CCOc1ccc(-n2c(C)nc3cc(C(=O)NCc4ccc(C)cc4)ccc32)cc1 -28.2%
COc1ccc(-c2ccc(-c3noc(-c4cc(OC)cc(OC)c4)n3)c(OC)n2)cc1 4.09%
Cc1ccc(C(=O)Nc2nnc(S(=O)(=O)N(C)Cc3ccc(F)cc3)s2)cc1 8.38%
CC1CCCN(c2nc(-c3ccccc3O)nc3ccccc23)C1 (configuration not stated) -5.13%
O=c1c2c3c(sc2nnn1Cc1ccc(F)cc1)CCCC3 -28.1%
CC(=O)N1CCc2c(sc3c2c(=O)n(-c2ccccc2)c(=O)n3CC(=O)Nc2ccccc2C)C1 -6.41%
COc1ccc(NC(=O)c2oc3ccccc3c2NC(=O)c2cc3ccccc3o2)cc1 4.49%
CCOc1ccc(NS(=O)(=O)c2ccc3[nH]cc(C(=O)N(C)Cc4ccccc4)c(=O)c3c2)cc1 4.05%
COc1ccc2c(c1)CC(NC(=O)Nc1c(C)cc(C)cc1C)CO2 (configuration not stated) -1.41%
CCOc1ccc(NC(=O)CSc2nnc3scc(-c4ccc(Cl)cc4)n23)cc1 -7.75%
Cc1cccc(-n2c3nc(=O)[nH]c(=O)c-3cc3c(Cl)cccc32)c1C -35.2%
O=C(NCC(c1ccco1)S(=O)(=O)c1cccs1)c1ccc(F)cc1 (configuration not stated) 17%
CC(=O)Nc1ccc(C2Sc3ccccc3NC3=C2C(=O)c2ccccc23)cc1 (configuration not stated) 29%
CCOC(=O)c1ccc2oc(=O)n(Cc3ccccc3)c2c1 0%
Cc1oc2ncn(CC(C)C)c(=O)c2c1C(=O)NCCCN1CCCCC1 -16.8%
Cc1cc(C)c(NC(=O)c2cc3sc(Cl)cc3n2C)c(C)c1 -16.8%
COc1ccccc1CNC(=O)c1ccc(N2CCCC2)c(NC(=O)NCCC(C)C)c1 -23.6%
O=C(COc1ccc(F)cc1)Nc1ccc2nc(SCC(=O)N3CCc4ccccc43)sc2c1 -10.4%
COc1cccc(NC(=O)CSc2ncc(S(=O)(=O)c3ccc(C)c(C)c3)c(=O)[nH]2)c1 -3.44%
CC(=O)c1ccc(N2CCN(S(=O)(=O)c3ccc(-c4cc(C(F)(F)F)on4)s3)CC2)cc1 -4.09%
Cc1ccccc1OCC(=O)OCc1cc(=O)n2nc(C3CCCCC3)sc2n1 -2.24%
CCc1c(-c2ccccc2)nc2ccccc2c1C(=O)NCCc1ccccc1 1.44%
Cc1csc2nc(COc3ccccc3NC(=O)c3ccco3)cc(=O)n12 -3.54%
CSc1cccc(NC(=O)Cn2c3ncccc3c(=O)n2-c2ccc(C)cc2)c1 -2.02%
Cc1ccc2c(=O)cc(C(=O)Nc3cccc(Cl)c3C)oc2c1C -4.76% [at 11.5 µM]
COc1ccc(OCCCCn2c(-c3ccc(Cl)cc3)nc3ccccc3c2=O)cc1 3.08%

From PubChem BioAssay AID1508623 (National Center for Advancing Translational Sciences (NCATS), 2021)
